Data taken from PMC12820563.
Some of the results follow. The list includes weakly bound sequences.

Target: T1, MBP-FoxP3dN (UniProt Q99JB6)
T1 sequence: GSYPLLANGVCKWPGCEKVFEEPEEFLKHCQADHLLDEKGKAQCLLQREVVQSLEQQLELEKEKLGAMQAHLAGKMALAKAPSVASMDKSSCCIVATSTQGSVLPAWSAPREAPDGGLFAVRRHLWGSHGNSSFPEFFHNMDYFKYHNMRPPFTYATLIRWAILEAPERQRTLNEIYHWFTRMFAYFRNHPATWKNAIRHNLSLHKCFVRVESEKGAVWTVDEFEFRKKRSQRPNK
Assay: PD-seq (MBP pull-down with sequencing)
Conditions: 20 mM Tris-HCl pH 7.5, 100 mM NaCl, 1.5 mM MgCl2, 0.4 uM protein, 0.1 uM dsDNA library, 30 min, room temperature, amylose pull-down; high values mean tight binding; double strand, one strand shown

Sequence	binding signal (RPM ratio (pull-down/input))
GATGATTGTTCTCCCAGCTGATGAATTGTGACTGTCGAGTAAACAAATTTTCCTAATCTTTCTGTTCAAGCGCCATCTAC	1.45
GATGATTGTTCTCCCAGCTGATGAATTCTGCACTTCGAGTAAACAAATTTTCCTAATCTTTCTGTTCAAGCGCCATCTAC	1.35
GATGATTGTTCTCCCAGCTGATGAATTGCACTACTCGAGTAAACAAATTTTCCTAATCTTTCTGTTCAAGCGCCATCTAC	0.92
GATGATTGTTCTCCCAGCTGATGAATTTGTATTGTCGAGTAAACAAATTTTCCTAATCTTTCTGTTCAAGCGCCATCTAC	6.39
GATGATTGTTCTCCCAGCTGATGAATTCAAACTGTCGAGTAAACAAATTTTCCTAATCTTTCTGTTCAAGCGCCATCTAC	0.354
GATGATTGTTCTCCCAGCTGATGAATTTATATGATCGAGTAAACAAATTTTCCTAATCTTTCTGTTCAAGCGCCATCTAC	0.725
GATGATTGTTCTCCCAGCTGATGAATTTCAGCCTTCGAGTAAACAAATTTTCCTAATCTTTCTGTTCAAGCGCCATCTAC	1.56
GATGATTGTTCTCCCAGCTGATGAATTCTCGTTATCGAGTAAACAAATTTTCCTAATCTTTCTGTTCAAGCGCCATCTAC	0.573
GATGATTGTTCTCCCAGCTGATGAATTAGCCACTTCGAGTAAACAAATTTTCCTAATCTTTCTGTTCAAGCGCCATCTAC	1.09
GATGATTGTTCTCCCAGCTGATGAATTCGTGTTTTCGAGTAAACAAATTTTCCTAATCTTTCTGTTCAAGCGCCATCTAC	1.7
GATGATTGTTCTCCCAGCTGATGAATTGATGCCATCGAGTAAACAAATTTTCCTAATCTTTCTGTTCAAGCGCCATCTAC	3.67
GATGATTGTTCTCCCAGCTGATGAATTTGCTTCCTCGAGTAAACAAATTTTCCTAATCTTTCTGTTCAAGCGCCATCTAC	3.03
GATGATTGTTCTCCCAGCTGATGAATTCCCCGATTCGAGTAAACAAATTTTCCTAATCTTTCTGTTCAAGCGCCATCTAC	0.223
GATGATTGTTCTCCCAGCTGATGAATTCATTTTATCGAGTAAACAAATTTTCCTAATCTTTCTGTTCAAGCGCCATCTAC	0.661
GATGATTGTTCTCCCAGCTGATGAATTCGCACGGTCGAGTAAACAAATTTTCCTAATCTTTCTGTTCAAGCGCCATCTAC	0.315
GATGATTGTTCTCCCAGCTGATGAATTAAAGAGATCGAGTAAACAAATTTTCCTAATCTTTCTGTTCAAGCGCCATCTAC	0.203
GATGATTGTTCTCCCAGCTGATGAATTGAGACGATCGAGTAAACAAATTTTCCTAATCTTTCTGTTCAAGCGCCATCTAC	0.262
GATGATTGTTCTCCCAGCTGATGAATTGTTGAATTCGAGTAAACAAATTTTCCTAATCTTTCTGTTCAAGCGCCATCTAC	1
